In the supplement of paper PMC9446081:
In all, about 39,000 compounds went through this assay and about 220 (0.56%) showed activity. Some of the results follow.

Test system: Escherichia coli K-12 BW25113
Assay: relative growth (OD600 normalised to plate interquartile mean) (fraction); higher = less growth inhibition, active = 0.2 or less
Conditions: 50 µM; LB; incubation time: overnight (16-24 h)
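Note: static incubation at 37 °C against the wild-type strain, values averaged over two biological replicates.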

Row | SMILES | relative growth
1 | C[C@H](CO)N1C[C@H](C)[C@@H](CN(C)C(=O)Nc2cccc3ccccc23)Oc2c(NC(=O)Nc3ccc(C(F)(F)F)cc3)cccc2C1=O | inactive: 0.767
2 | COc1ccc(NC(=O)Nc2cccc3c2O[C@@H](CN(C)C(=O)Nc2cccc4ccccc24)[C@@H](C)CN([C@@H](C)CO)C3=O)cc1 | inactive: 1.01
3 | C[C@H](CO)N1C[C@H](C)[C@H](CN(C)C(=O)C2CCCCC2)OCCCC[C@H](C)Oc2ccc(NC(=O)Cc3ccccc3)cc2C1=O | inactive: 1.02
4 | S=P(N1CC1)(N1CC1)N1CC1 | inactive: 0.951
5 | C[C@H]1CN([C@@H](C)CO)C(=O)c2cc(NC(=O)Nc3cccc4ccccc34)ccc2O[C@H]1CN(C)Cc1ccncc1 | inactive: 0.972
6 | Cc1ccc(S(=O)(=O)Nc2cccc3c2O[C@H](CN(C)S(=O)(=O)c2c(C)noc2C)[C@@H](C)CN([C@H](C)CO)C3=O)cc1 | inactive: 0.986
7 | COc1ccc(NC(=O)Nc2ccc3c(c2)C(=O)N([C@@H](C)CO)C[C@H](C)[C@H](CN(C)S(=O)(=O)c2ccc(C)cc2)OCCCC[C@@H](C)O3)cc1 | inactive: 1.03
8 | C[C@@H]1CCCCO[C@H](CN(C)S(C)(=O)=O)[C@@H](C)CN([C@H](C)CO)C(=O)c2cc(NS(=O)(=O)c3cccs3)ccc2O1 | inactive: 0.977
9 | O=C(CCCCCNC(=O)OCc1ccc(CO[C@H]2C[C@@H](c3coc4ccccc4c3=O)C=C(C(=O)N3CCN(Cc4ccccc4)CC3)O2)cc1)NO | inactive: 0.996
10 | C[C@@H]1CN([C@H](C)CO)C(=O)CCCn2nncc2CO[C@@H]1CN(C)S(=O)(=O)c1ccccc1C#N | inactive: 1.03
11 | C[C@@H]1CN([C@H](C)CO)C(=O)c2cc(NC(=O)Nc3ccc4c(c3)OCO4)ccc2O[C@@H](C)CCCCO[C@H]1CN(C)S(=O)(=O)c1ccccc1 | inactive: 1.02
12 | C[C@H](CO)N1C[C@H](C)[C@@H](CN(C)S(C)(=O)=O)Oc2ncc(C#Cc3cccnc3)cc2C1=O | inactive: 0.967
13 | COc1ccc(S(=O)(=O)N[C@@H]2C=C[C@@H](CC(=O)NCCc3ccncc3)O[C@H]2CO)cc1 | inactive: 0.991
14 | C[C@@H]1CN([C@H](C)CO)C(=O)c2c(c3ccccc3n2C)-c2ccccc2CO[C@@H]1CN(C)Cc1ccc(O)cc1 | inactive: 1.04
15 | COc1ccc(S(=O)(=O)Nc2ccc3c(c2)C(=O)N([C@@H](C)CO)C[C@H](C)[C@@H](CN(C)S(=O)(=O)c2ccc(OC)cc2)O3)cc1 | inactive: 1.03
16 | C[C@@H]1CCCCO[C@H](CN(C)C(=O)Nc2ccc(F)cc2)[C@H](C)CN([C@H](C)CO)C(=O)c2cc(NS(=O)(=O)c3ccccc3)ccc2O1 | inactive: 1.02
17 | C[C@H]1CN([C@@H](C)CO)C(=O)c2cc(NC(=O)C3CC3)ccc2O[C@@H]1CN(C)S(=O)(=O)c1cccs1 | inactive: 1.01
18 | C[C@@H]1CN([C@@H](C)CO)C(=O)c2cc(NS(=O)(=O)c3ccc(Cl)cc3)ccc2O[C@H]1CN(C)Cc1ccc(Cl)c(Cl)c1 | inactive: 1.02
19 | CN1C(=O)c2cc(NC(=O)c3cnccn3)ccc2OC[C@@H]2O[C@H](CC(=O)N[C@H]3CCN(Cc4ccccc4)C3)CC[C@@H]21 | inactive: 0.974
20 | O=C(NCCO)c1cc(C(=O)NCCO)cc(C(=O)NCCO)c1 | inactive: 0.981

Row | SMILES | relative growth
21 | COc1ccc(S(=O)(=O)Nc2ccc3c(c2)CC(=O)N([C@H](C)CO)C[C@H](C)[C@@H](CN(C)Cc2ccc(Cl)c(Cl)c2)O3)cc1 | inactive: 0.987
22 | COc1ccc2c3c([nH]c2c1)[C@@H](CO)N(C[C@]13CN(Cc2nccs2)C1)S(=O)(=O)c1ccc(cc1)C | inactive: 1.02
23 | C[C@@H]1CN([C@H](C)CO)C(=O)c2cccc(NC(=O)c3nc4ccccc4s3)c2O[C@@H]1CN(C)Cc1ccc(-c2ccccc2)cc1 | inactive: 0.953
24 | O=C1C[C@@H](O)[C@@H](O)c2c(O)cccc21 | inactive: 1
25 | O=C(C[C@@H]1C=C[C@H](NC(=O)c2cccnc2)[C@@H](CO)O1)NCCN1CCCCC1 | inactive: 0.962
26 | C[C@H](CO)N1C[C@H](C)[C@@H](CN(C)S(=O)(=O)c2cn(C)cn2)Oc2ccc(NC(=O)Nc3ccccc3)cc2C1=O | inactive: 1
27 | C[C@H]1CN([C@@H](C)CO)S(=O)(=O)c2ccc(-c3ccncc3)cc2O[C@@H]1CN(C)Cc1ccc(Oc2ccccc2)cc1 | inactive: 1.03
28 | C[C@@H]1CN([C@H](C)CO)C(=O)c2cccc(NC(=O)c3nc4ccccc4s3)c2O[C@H]1CN(C)CC1CCCCC1 | inactive: 0.968
29 | CC(C)N1C[C@@H](CN(C)Cc2ccc(Cl)cc2)Oc2c(cccc2-c2nnc(-c3ccncc3)o2)C1=O | inactive: 1
30 | CCCC[C@H](C)C[C@H](O)/C=C/[C@H]1[C@H](O)CC(=O)[C@@H]1CCCC/C=C/C(=O)O | inactive: 1.01
31 | C[C@@H]1CCCCO[C@H](CN(C)C(=O)Nc2cccc3ccccc23)[C@@H](C)CN([C@H](C)CO)C(=O)c2cc(NC(=O)Nc3ccc(C(F)(F)F)cc3)ccc2O1 | inactive: 0.999
32 | C[C@@H]1CN([C@@H](C)CO)C(=O)c2cc(NC(=O)c3ccncc3)ccc2O[C@@H](C)CCCCO[C@@H]1CN(C)C(=O)Nc1cccc2ccccc12 | inactive: 0.989
33 | CCS(=O)(=O)Nc1ccc2c(c1)C(=O)N(C)[C@H]1CC[C@@H](CC(=O)NCc3ccc(OC)cc3)O[C@H]1CO2 | inactive: 1.03
34 | CO[C@@H]1CN(C)C(=O)c2ccc(NS(=O)(=O)c3ccccc3)cc2OC[C@H](C)N(C(=O)NC(C)C)C[C@H]1C | inactive: 0.999
35 | CCCOc1ccc2nc(NC(=O)OC)[nH]c2c1 | inactive: 0.991
36 | C[C@H]1CCCCO[C@H](CN(C)Cc2ccc(Cl)c(Cl)c2)[C@@H](C)CN([C@@H](C)CO)C(=O)c2cc(NC(=O)Nc3ccccc3)ccc2O1 | inactive: 1
37 | c1ccc(Oc2ccncc2)cc1 | inactive: 0.883
38 | C[C@@H]1CCCCO[C@@H](CN(C)C(=O)Nc2ccc(F)cc2)[C@H](C)CN([C@@H](C)CO)C(=O)c2cc(NS(=O)(=O)c3ccc(F)cc3)ccc2O1 | inactive: 1.03
39 | CC(=O)N1CCS(=O)(=O)[C@H]2CCN(S(=O)(=O)Cc3ccccc3)CC[C@@H]21 | inactive: 1.01
40 | COC(=O)[C@@H]1C[C@H](C#N)N[C@@H]1c1ccco1 | inactive: 0.989

Row | SMILES | relative growth
41 | Cc1ccc(C(=O)O)c(=O)[nH]1 | inactive: 1.05
42 | Cc1noc(C)c1S(=O)(=O)Nc1ccc2c(c1)CC(=O)N([C@@H](C)CO)C[C@H](C)[C@H](CN(C)S(=O)(=O)c1ccc(F)cc1)O2 | inactive: 1.01
43 | C[C@H]1CC/C=C\[C@H]2O[C@@]34C=CCN(Cn5nnc6ccccc65)C(=O)[C@H]3N(CCCCCCO)C(=O)[C@@H]4[C@@H]2C(=O)O1 | inactive: 0.983
44 | C[C@H](CO)N1C[C@H](C)[C@@H](CN(C)C(=O)Nc2ccc(C(F)(F)F)cc2)OCc2cn(nn2)CCCC1=O | inactive: 0.961
45 | COc1ccc(S(=O)(=O)N(C)C[C@@H]2Oc3c(NS(=O)(=O)c4ccc(F)cc4)cccc3C(=O)N([C@@H](C)CO)C[C@@H]2C)cc1 | inactive: 1
46 | C[N+](C)(C)CCOP(=O)([O-])OP(=O)(O)OCC1OC(n2ccc(N)nc2=O)C(O)C1O (stereo not given) | inactive: 0.967
47 | C[C@@H]1CN([C@H](C)CO)S(=O)(=O)c2ccc(-c3ccc(C#N)cc3)cc2O[C@@H]1CN(C)C(=O)CN(C)C | inactive: 0.998
48 | C[C@H]1CN([C@@H](C)CO)C(=O)c2cccc(NC(=O)Nc3cccc4ccccc34)c2O[C@@H]1CN(C)S(=O)(=O)c1ccc(Cl)cc1 | inactive: 1.03
49 | COc1cccc(S(=O)(=O)N(C)C[C@@H]2OCc3cn(nn3)CCCC(=O)N([C@H](C)CO)C[C@@H]2C)c1 | inactive: 0.993
50 | Cc1noc(C)c1S(=O)(=O)Nc1cccc2c1O[C@H](CN(C)C(=O)NC(C)C)[C@H](C)CN([C@@H](C)CO)C2=O | inactive: 0.98
51 | COc1ccc(NC(=O)N(C)C[C@@H]2OCCCC[C@H](C)Oc3ccc(NS(=O)(=O)c4c(C)noc4C)cc3C(=O)N([C@H](C)CO)C[C@@H]2C)cc1 | inactive: 1.04
52 | O=C(CCCCCCC(=O)N/N=C/[C@H](O)[C@@H](O)[C@H](O)[C@H](O)CO[C@H]1O[C@H](CO)[C@H](O)[C@H](O)[C@H]1O)NO | inactive: 1.01
53 | CC(C)NC(=O)N(C)C[C@H]1Oc2ccc(NS(=O)(=O)c3cn(C)cn3)cc2CC(=O)N([C@H](C)CO)C[C@H]1C | inactive: 0.997
54 | CCCC[C@@H](O)c1ccccc1 | inactive: 0.992
55 | Cc1noc(C)c1NC(=O)N[C@H]1CC[C@@H](CC(=O)N2CCN(C)CC2)O[C@H]1CO | inactive: 1.03
56 | COc1ccc(S(=O)(=O)N(C)C[C@H]2Oc3c(NC(=O)Nc4cccc5ccccc45)cccc3C(=O)N([C@@H](C)CO)C[C@H]2C)cc1 | inactive: 1.01
57 | CN1CCN(C(=O)C[C@H]2CC[C@@H]3[C@H](COc4ccc(NC(=O)c5ccc(F)c(F)c5)cc4C(=O)N3C)O2)CC1 | inactive: 0.993
58 | Cc1noc(C)c1S(=O)(=O)N(C)C[C@H]1Oc2ccc(NC(=O)Nc3ccccc3)cc2CC(=O)N([C@@H](C)CO)C[C@@H]1C | inactive: 0.924
59 | CN(C)CCCNC(=O)C[C@H]1CC[C@H](NS(=O)(=O)c2ccccc2)[C@@H](CO)O1 | inactive: 0.989
60 | C[C@@H]1CN([C@@H](C)CO)C(=O)c2cc(NC(=O)Nc3ccccc3)ccc2O[C@@H](C)CCCCO[C@H]1CN(C)S(=O)(=O)c1ccccc1F | inactive: 1.02
